± gives the standard deviation of the averaged measurements. The list shows a part of the results.

This assay concerns PfAP2-EXP AP2 domain (GST-tagged). The assay can be described thus: gcPBM binding intensity (ln(normalized median fluorescence intensity)); higher = stronger DNA binding. An outline of the steps:
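Binding intensity is the highest Masliner-normalised natural-log median intensity over replicate spots in either probe orientation. To obtain it, GST-tagged P. falciparum DNA-binding domains made in E. coli were incubated for 1 h on an Agilent 4 × 180k array of primer-extended double-stranded 36-bp intergenic genomic probes plus negative controls. Detection used Alexa488 anti-GST antibody with scanning at 488 nm.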
Regarding “AACTCATCTTATAATTGTACATATTTATAAAAAGTA [XGTACX_site6522]”, the “gcPBM binding intensity (ln)” value is 8.46 ± 0.37. For “TTAGGGATGCTGAAATGTACACATTTAAATTATATA [XGTACX_site3000]”, the “gcPBM binding intensity (ln)” value was found to be 8.44 ± 0.29. In the case of “AAAAAAAAAAAAAAAAAAAAAAAAAAAAAATATATA [GTGCAC_negctrl_site6]” it was 9.105 ± 0.078.

Take “AATGTAAAACTAATATGTACATATCTCTAAAGAAAT [XGTACX_site8429]”: the “gcPBM binding intensity (ln)” value worked out at 8.65 ± 0.41. Turning to ATTGTCTTCCTTCTGGTGCGATGTATAGGTAAAGAT, the “gcPBM binding intensity (ln)” value was 8.81 ± 0.37. On to “CGTACTAACATAAAGACACACACCACATATAATAAA [CACACA_site3603]”, for which the “gcPBM binding intensity (ln)” value is 8.72 ± 0.63.

As for “TACGTGAAATTATATACACACATAAATATGTCTGTA [CACACA_site3122]”, the “gcPBM binding intensity (ln)” value came out at 8.16 ± 0.36. As to “AAGCTACACATAGATTATTATTAATTTAATGTATAT [CACACA_negctrl_site548]”, the “gcPBM binding intensity (ln)” value turned out to be 8.05 ± 0.32. Regarding AATTATTAGCGTGGTGTGCACAAAATTATGGACACA, the “gcPBM binding intensity (ln)” value was found to be 8.85 ± 0.17. In the case of “ACAAGCTTTCATAAGGTGCAATGATTTAACAAAAAA [GTGCAC_site9726]” it was 8.62 ± 0.23; in that of “AGCATTTATGAAAAATGTACACACATCAAATGCTTA [XGTACX_site8749]”, 8.65 ± 0.31. For the sequence “ACACATGACATCCGTTGTACAATCATCATAAAAATG [XGTACX_site5397]”, the “gcPBM binding intensity (ln)” value amounted to 8.91 ± 0.36. For the sequence “TATAAAAATAATATTACACACATGTAAAATGTCGGT [CACACA_site3264]”, the “gcPBM binding intensity (ln)” value stood at 8.31 ± 0.35. In the case of “AGCAACCCCCTAGCTACACACATATAGATATATATA [CACACA_site951]” it was 9.69 ± 0.56. As to “TAAAATTTTTTTGTTTGTACATATATATATATAATA [XGTACX_site5609]”, the “gcPBM binding intensity (ln)” value amounted to 8.72 ± 0.52.

Consider “TTTCCCTTAAATTAATGTACATAAATTGAAAATACC [XGTACX_site1602]”, for which the “gcPBM binding intensity (ln)” value amounted to 8.67 ± 0.3.

Regarding “TATATATTATACACGTGTACACATTATAACAATATA [XGTACX_site7799]”, the “gcPBM binding intensity (ln)” value stood at 8.65 ± 0.31.

Consider “TTGCCCCAGGAGTTCACACACATAATAGATTGTCAC [CACACA_site726]”, for which the “gcPBM binding intensity (ln)” value turned out to be 8.63 ± 0.44.

Consider “AAAAAAAAAAAACACACACACAAAAAAAAATATATA [CACACA_site1105]”, for which the “gcPBM binding intensity (ln)” value turned out to be 8.38 ± 0.61. In the case of “AAAAAAATAAATAAATACATACATATATATATGTAT [GTGCAC_negctrl_site510]” it was 8.2 ± 0.37. In the case of “TTGTTTCCTTAATATTCACACACATATATATAATAT [CACACA_site8553]” it was 8.89 ± 0.48. In the case of “ATAAAAATTAAAGAATGTACACATATAATATATGTA [XGTACX_site8735]” it was 8.38 ± 0.34; in that of “AAAAGTTATAGACACACACACATATAAATATAGATT [CACACA_site6617]”, 8.53 ± 0.48. On to “ATAATCCTTAAACACACACACACACTAATAAATAAA [CACACA_site8052]”, for which the “gcPBM binding intensity (ln)” value was 8.67 ± 0.62. Turning to TATAAATGTATACAAGTGCATATTATTCACACATAA, the “gcPBM binding intensity (ln)” value stood at 8.73 ± 0.16.

With “TTTTAAAAAAATAAATAAATAGAAAAAAAAAATAAA [TGCATGCA_negctrl_site579]”, the “gcPBM binding intensity (ln)” value came out at 8.45 ± 0.39. Take “GGATATATTTTATGTACACACATATATAACGGATAT [CACACA_site4847]”: the “gcPBM binding intensity (ln)” value came to 8.77 ± 0.28. As for “TATTATGACTTAAGTTGTACTGTTGAAAGAAGAAAA [XGTACX_site2985]”, the “gcPBM binding intensity (ln)” value was determined as 8.75 ± 0.44.

As for “TAATATATTGTAGATGCATGCATTAACTATTACAAA [TGCATGCA_site190]”, the “gcPBM binding intensity (ln)” value is 9.7 ± 0.11. Turning to “CGTATAAATAAATACACACACATATAAATATGTAAA [CACACA_site6236]”, the “gcPBM binding intensity (ln)” value came to 8.34 ± 0.44.

“TATCAATGGAAAATATATATTTGTATATATGTAATA [XGTACX_negctrl_site257]”: the “gcPBM binding intensity (ln)” value was 8.46 ± 0.4.

With “GTATTATACCATAATGCATGTTAACTTCAAAAGAAA [TGCATGCA_site839]”, the “gcPBM binding intensity (ln)” value was found to be 8.69 ± 0.52. In the case of “GAAATTATTATATAAACACACATTTATTTTATTTTA [CACACA_site1957]” it was 8.21 ± 0.36. With “ATAACATAACATAATACACACATATAAAAAAGAAAT [CACACA_site3028]”, the “gcPBM binding intensity (ln)” value turned out to be 9.04 ± 0.67.

For “ATATAATATATTTTCACACATATTTTATGATGATAA [CACACA_site5614]”, the “gcPBM binding intensity (ln)” value is 8.3 ± 0.42. Consider “AAAAAAAAAAAAAAAGGTACAGTAAAAAATTCCTCT [XGTACX_site5947]”, for which the “gcPBM binding intensity (ln)” value is 8.43 ± 0.14. Turning to “AAATTTAATTTTATATCACACATTAAATTTTAATGG [CACACA_site4251]”, the “gcPBM binding intensity (ln)” value was determined as 8.4 ± 0.45. For the sequence “TATTCTATAAATATATTTTTTTAATTTTTTATTTTA [CACACA_negctrl_site307]”, the “gcPBM binding intensity (ln)” value worked out at 8.27 ± 0.34. Regarding “TATGTAAAAAGAGAAAAAAAAAAGAACGATAATTTC [CACACA_negctrl_site946]”, the “gcPBM binding intensity (ln)” value worked out at 8.68 ± 0.49.

“ATATAAGAATTTAAGAGTACATTCACTTCAAATTTA [XGTACX_site2115]”: the “gcPBM binding intensity (ln)” value came out at 8.26 ± 0.43. Regarding “AGGTGTATCATAAAATGTACATACATACATACATAA [XGTACX_site4479]”, the “gcPBM binding intensity (ln)” value is 8.46 ± 0.38. “TATTATTATTTTTTATGTACTAACGACAAAAATATT [XGTACX_site252]”: the “gcPBM binding intensity (ln)” value turned out to be 8.47 ± 0.3.

As to “AAAATGTGCTTTTCAGTGCAATTTTTTTTGTAATAA [GTGCAC_site9566]”, the “gcPBM binding intensity (ln)” value worked out at 8.2 ± 0.22. Regarding “TTGTAATTCATTCAAATATAAAATAAATAAATATGA [CACACA_negctrl_site349]”, the “gcPBM binding intensity (ln)” value was 8.28 ± 0.34. For the sequence “TACATCGGTATATAAACACACAACAAAAATGCTTAC [CACACA_site5983]”, the “gcPBM binding intensity (ln)” value stood at 8.64 ± 0.52. In the case of “AAAATAATTAAAAAAAGTACTCGTAATATAAATATA [XGTACX_site4967]” it was 8.7 ± 0.45; in that of “ACAAATAAATAAAAATGTACAAATGAATACATCTTA [XGTACX_site3780]”, 8.19 ± 0.29; in that of “TTAAAAGATATTACATGTACATATTCAATATATGTA [XGTACX_site5895]”, 8.24 ± 0.35. As for “TTTTTTTAAAAAAACAAAAAAAAAAAAAATATAAAA [TGCATGCA_negctrl_site511]”, the “gcPBM binding intensity (ln)” value was found to be 8.23 ± 0.45.

With “TTTGTTATTTATTAGTGTACAAAAAAGCATTTCAAA [XGTACX_site8729]”, the “gcPBM binding intensity (ln)” value stood at 8.44 ± 0.3. In the case of “AAATTAAATAAATTTACACACTAAAAGTTACCTATA [CACACA_site6623]” it was 8.15 ± 0.38; in that of “AAAAAAAAAAAAAAAAAAAAAAAAAAAAAAAAAAAT [CACACA_negctrl_site882]”, 9.25 ± 0.16. Take “TACATTTATAATAATACACACATAAATTTACATTTT [CACACA_site3463]”: the “gcPBM binding intensity (ln)” value worked out at 8.35 ± 0.3. For the sequence “TATGAAAATTAAGTTTGTACACAAGTGGAAAAAAAA [XGTACX_site6129]”, the “gcPBM binding intensity (ln)” value turned out to be 8.61 ± 0.28. In the case of “ATATAAAGAAATTAATTTTTCAACAATAAAAATATA [CACACA_negctrl_site1262]” it was 8.27 ± 0.42; in that of “AATAATGTATAATGATGTACAAAAAAGGAAGACATA [XGTACX_site2474]”, 9.1 ± 0.53; in that of “ATATTTTGTAATATTTGTACATATATTATACATATA [XGTACX_site963]”, 8.49 ± 0.36.

The values are drawn from the supplement of paper PMC11417369.
